Measurements reported in PubChem BioAssay AID686978 (National Center for Advancing Translational Sciences (NCATS), 2013).
“And” between values parts separate entries of the source, which are not always exact repeats. Equal values may be shown once. Screen size: about 420,000 compounds; about 64,000 (15%) were called active. This list was built around the results that the source calls inconclusive (neither active nor inactive); the mix of calls is not that of the screen. Calls follow the shape of the dose curve; as a rule, active = well fitted inhibition curve with a large enough effect; inconclusive = small, poorly fitted or top-dose-only effect; inactive = flat fitted curve, though single readings scatter. Where the call is inconclusive, the potency comes from a doubtful curve fit. Where a structure was tested more than once in an assay, its records may differ in their call.

Test: qHTS for Inhibitors of human tyrosyl-DNA phosphodiesterase 1 (TDP1): qHTS in cells in absence of CPT; also: nearly all actives have a fitted effect of over 55% in size
Details: DT40 Tdp1-/- hTDP1 cells, no CPT, ATP luminescence, 48 h; activity change, negative = growth inhibition: at 46.2 µM (top of the series)
Method in brief: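 DT40 Tdp1-/-;hTDP1 cells, no CPT (DMSO vehicle only), 400 cells/well; compounds pin-transferred; ≥48 hr, 37 °C; CellTiter-Glo 30 min RT dark, luminescence read.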
% is scaled to controls: 0 for no effect and ±100 for the full control effect; potency is read from the fitted curve at half-maximal effect; tags tell the direction and shape of the fitted curve.

**Q.** Which Potency does the source give for `Cc1cc(C)c(S(=O)(=O)c2ccccc2Cl)c(=O)[nH]1` here?
**A.** inactive

**Q.** Which Potency does the source give for `Cc1nnc(NC(=O)CSc2nccn2-c2cccc(C)c2C)s1` here?
**A.** active: 3.26 µM

**Q.** Which Potency does the source give for `Cc1ccccc1CN(c1ccc(C(=O)Nc2ccccc2C(=O)NCc2ccco2)cc1)S(C)(=O)=O` here?
**A.** inconclusive: 29.1 µM [inhibitor, single point]

**Q.** For `CCCCCCCCC(=O)c1c(OC)oc(C=O)cc1=O`, which Potency is on record?
**A.** inconclusive: 29.1 µM [inhibitor, single point]

**Q.** With `COc1cc2c(cc1OC)C(c1cccs1)N(C(=O)c1cccnc1)CC2` (stereo not drawn) as the molecule, how does the Potency read?
**A.** active: 2.91 µM

**Q.** For `Cc1ccc(NS(=O)(=O)c2cccc(C(=O)NCC(c3cccs3)N3CCOCC3)c2)cc1` (stereo not drawn), which Potency is on record?
**A.** inconclusive: 29.1 µM [inhibitor, single point]

**Q.** Which Potency does the source give for `COc1ccccc1N1N=C(c2ccc([N+](=O)[O-])cc2)CC1c1ccccc1` (stereo not drawn) here?
**A.** inconclusive: 23.1 µM [inhibitor, single point]

**Q.** With `CCOc1ccc2cc(C3CC(c4ccco4)=NN3S(C)(=O)=O)c(Cl)nc2c1` (stereo not drawn) as the molecule, how does the Potency read?
**A.** inconclusive: 25.9 µM [inhibitor, partial curve, poor fit]

**Q.** With `O=C(C1CCCN1C(=O)c1cccs1)N1CCN(Cc2ccc3c(c2)OCO3)CC1` (stereo not drawn) as the molecule, how does the Potency read?
**A.** inconclusive: 23.1 µM [inhibitor, partial curve]

**Q.** With `CC(=O)N1c2ccc(S(=O)(=O)N3CCC(C(=O)Nc4cccc(C(F)(F)F)c4)CC3)cc2CC1C` (stereo not drawn) as the molecule, how does the Potency read?
**A.** inconclusive: 16.4 µM [inhibitor, partial curve, poor fit]

**Q.** With `Cn1c(=O)c2cc(NC(=O)NCc3ccccc3)ccc2n1Cc1cccc(C(F)(F)F)c1` as the molecule, how does the Potency read?
**A.** inconclusive: 2.59 µM [inhibitor, full curve]

**Q.** Which Potency does the source give for `O=C(O)CCCNS(=O)(=O)c1ccc(F)cc1` here?
**A.** inactive

**Q.** Which Potency does the source give for `Cc1ccccc1C(=O)N1CCc2c(cnc(C)c2CNC(=O)CN2CCCCC2)C1` here?
**A.** inactive

**Q.** With `CCC(C(=O)NC1CCCC1)N(C(=O)Cn1nnc(-c2ccc(OC)c(OC)c2)n1)C1CCCCC1` (stereo not drawn) as the molecule, how does the Potency read?
**A.** inconclusive: 14.6 µM [inhibitor, partial curve]

**Q.** For `COc1ccc(Nc2nc(-c3sc(C)nc3C)cs2)cc1`, which Potency is on record?
**A.** active: 1.16 µM

**Q.** With `CNC(=O)CC1C(=O)N(c2ccc(OC)cc2)C(=S)N1NC(=O)c1cccc(F)c1` (stereo not drawn) as the molecule, how does the Potency read?
**A.** inactive

**Q.** For `COc1ccccc1N1CCN(C(c2cccs2)C(C)NC(=O)c2cccs2)CC1` (stereo not drawn), which Potency is on record?
**A.** active: 11.6 µM

**Q.** With `COc1cccc(NC(=O)c2ncc(Cl)c(Cl)c2Cl)c1` as the molecule, how does the Potency read?
**A.** active: 5.17 µM

**Q.** With `Cc1ccc(-c2cn3c(n2)sc2cc(C(=O)NC4CCCc5ccccc54)ccc23)cc1` (stereo not drawn) as the molecule, how does the Potency read?
**A.** active: 13 µM

**Q.** Which Potency does the source give for `COc1ccc(OC)c(-c2cc(C(=O)NCc3ccco3)no2)c1` here?
**A.** inconclusive: 25.9 µM [inhibitor, single point]

**Q.** Which Potency does the source give for `COc1cc2c3c(cccc3c1)C(=O)N(CCN1CCCC1)C2=O` here?
**A.** active: 0.103 µM

**Q.** With `Cc1cccc(C2c3[nH]c4ccccc4c3CCN2C(=O)c2ocnc2C)n1` (stereo not drawn) as the molecule, how does the Potency read?
**A.** inconclusive: 29.1 µM [inhibitor, single point]

**Q.** Which Potency does the source give for `Cc1nn(-c2ccccc2)c(C)c1/C=C1\C(=O)N(C)C(=S)N1C` here?
**A.** active: 16.4 µM

**Q.** For `CC1=C(/C=C/C(C)=C/C=C/C(C)=C\C(=O)O)C(C)(C)CCC1`, which Potency is on record?
**A.** active: 23.1 µM

**Q.** With `COc1ccccc1-c1cnc(C(O)c2cc(C)ccc2C)[nH]1` (stereo not drawn) as the molecule, how does the Potency read?
**A.** inconclusive: 18.4 µM [inhibitor, partial curve]

**Q.** With `COC(=O)c1ccc2nc(-c3ccccc3)c(Cc3ccc(C)cc3)n2c1` as the molecule, how does the Potency read?
**A.** inconclusive: 18.4 µM [inhibitor, single point]

**Q.** For `Cc1nn2c(N)c(C#N)cnc2c1-c1ccc(Cl)cc1`, which Potency is on record?
**A.** inactive

**Q.** With `Cc1ccc(S(=O)(=O)NC2=NCN(Cc3ccccc3)CN2)cc1` as the molecule, how does the Potency read?
**A.** inconclusive: 0.0517 µM [inhibitor, full curve]

**Q.** With `N#Cc1cnn2c(C(F)(F)F)c3c(nc12)CCCC3` as the molecule, how does the activity change, negative = growth inhibition read?
**A.** inconclusive: 7.99% [inhibitor]

**Q.** With `CC(=O)c1ccc(NC(=O)CSc2nc(C3CC3)nc3ccccc23)cc1` as the molecule, how does the Potency read?
**A.** inconclusive: 9.2 µM [inhibitor, partial curve]

**Q.** With `CC/C(=C(/CC)c1ccc(O)cc1)c1ccc(O)cc1` as the molecule, how does the Potency read?
**A.** inconclusive: 20.6 µM [inhibitor, partial curve]

**Q.** Which Potency does the source give for `Cc1ccc(NS(=O)(=O)c2cc(NC(=O)c3ccc4c(c3)NC(=O)CS4)ccc2C)c(C)c1` here?
**A.** inconclusive: 23.1 µM [inhibitor, single point]

**Q.** For `O=C(N/N=C/c1ccncc1)NC12CC3CC(CC(C3)C1)C2`, which Potency is on record?
**A.** inconclusive: 25.9 µM [inhibitor, single point]

**Q.** For `CCCc1cc(=O)oc2c(C)c(OCC(=O)NCCCN3CCOCC3)ccc12`, which Potency is on record?
**A.** inactive

**Q.** For `Cc1csc2nc(CSc3ccc(Cl)cc3)cn12`, which Potency is on record?
**A.** active: 23.1 µM

**Q.** Which Potency does the source give for `CCOC(=O)C(CCC(C)=O)C(=O)c1ccccc1` (stereo not drawn) here?
**A.** inactive

**Q.** With `C/C(=N/N1CCN(Cc2cccc3ccccc23)CC1)c1ccco1` as the molecule, how does the Potency read?
**A.** inconclusive: 18.4 µM [inhibitor, single point]

**Q.** With `COc1ccc(NC(=O)Cn2c(=O)n(CC(=O)NCCc3ccccc3)c(=O)c3ccccc32)cc1` as the molecule, how does the Potency read?
**A.** inactive

**Q.** For `CCN(CC)c1ccc(/C=N/Nc2nc3ccccc3[nH]2)cc1`, which Potency is on record?
**A.** active: 4.61 µM

**Q.** For `CC(=O)Nc1ccc(S(=O)(=O)NNC(=S)NCC2CCCO2)cc1` (stereo not drawn), which Potency is on record?
**A.** inactive

**Q.** For `CCCCC(CC)C(=O)Nc1ncc([N+](=O)[O-])s1` (stereo not drawn), which Potency is on record?
**A.** inconclusive: 29.1 µM [inhibitor, single point]

**Q.** Which Potency does the source give for `CCC1CCc2c(sc(NC(=O)c3ccoc3C)c2C(N)=O)C1` (stereo not drawn) here?
**A.** inconclusive: 29.1 µM [inhibitor, single point]

**Q.** Which Potency does the source give for `COCCCNCCOc1ccccc1-c1ccccc1` here?
**A.** inconclusive: 20.6 µM [inhibitor, single point]

**Q.** With `COc1cc(-c2noc(-c3ccc(N(C)C)c([N+](=O)[O-])c3)n2)cc(OC)c1OC` as the molecule, how does the Potency read?
**A.** active: 25.9 µM

**Q.** For `Cc1ccc(CCNc2nc3c(S(=O)(=O)c4ccccc4)nnn3c3ccsc23)cc1`, which Potency is on record?
**A.** inconclusive: 13 µM [inhibitor, single point]

**Q.** With `CN(C)c1cccc(C(=O)OCC(=O)c2ccc[nH]2)c1` as the molecule, how does the Potency read?
**A.** inactive

**Q.** For `O=C1Cc2ccccc2Sc2cc(OCCCN3CCCCC3)ccc21`, which Potency is on record?
**A.** inconclusive: 29.1 µM [inhibitor, single point]

**Q.** For `COCC(C)n1c(C)cc(C(=O)CSc2ncccn2)c1C` (stereo not drawn), which Potency is on record?
**A.** inactive

**Q.** Which Potency does the source give for `Cc1ccccc1Cn1cnc2c(nnn2Cc2ccc(F)cc2)c1=O` here?
**A.** inactive

**Q.** With `O=C(CCCN1C(=O)/C(=C/c2ccccc2Cl)SC1=S)NNC(=O)c1ccc(Cl)cc1` as the molecule, how does the Potency read?
**A.** inconclusive: 20.6 µM [inhibitor, single point]

**Q.** Which Potency does the source give for `Cn1c(SCc2cccnc2)nc2c(c1=O)SCC2` here?
**A.** inactive

**Q.** Which Potency does the source give for `O=C(CSc1n[nH]c(=O)[nH]c1=O)N/N=C/C=C\c1ccccc1` here?
**A.** inconclusive: 29.1 µM [inhibitor, single point]

**Q.** For `COc1ccc(CCNC(=O)CCCNC(=O)Cn2cnc3sc(C)c(C)c3c2=O)cc1OC`, which Potency is on record?
**A.** inactive

**Q.** Which Potency does the source give for `COc1cccc(Cc2nc3ccccc3nc2SCC(=O)N2CCN(c3ccccc3)CC2)c1` here?
**A.** active: 23.1 µM

**Q.** With `Cc1ccc(NC2=NC(c3ccc(F)cc3)n3c(nc(C)cc3=O)N2)c(C)c1` (stereo not drawn) as the molecule, how does the Potency read?
**A.** inactive

**Q.** For `Cc1cc(C)n(C(=O)c2cccc([N+](=O)[O-])c2C)n1`, which Potency is on record?
**A.** inactive

**Q.** For `CSc1ccc2c(c1)N(CCC1CCCCN1C)c1ccccc1S2` (stereo not drawn), which Potency is on record?
**A.** active: 15.8 µM and active: 7.5 µM and active: 16.4 µM

**Q.** For `CCCCC[C@H]1CN(CCCC)C(=O)[C@@H]1CC(=O)NCc1ccc(OC)cc1`, which Potency is on record?
**A.** inconclusive: 22.4 µM [inhibitor, single point] and inconclusive: 29.1 µM [inhibitor, single point]

**Q.** For `CC(C)CNCC(=O)N1c2ccccc2Sc2ccccc21`, which Potency is on record?
**A.** inconclusive: 16.4 µM [inhibitor, single point]

**Q.** For `CS(=O)(=O)Nc1ccccc1C(=O)NCCSc1ccc(Cl)cc1`, which Potency is on record?
**A.** inconclusive: 23.1 µM [inhibitor, single point]

**Q.** With `Clc1cc(Cl)c(OCCCCn2cncn2)c(Cl)c1` as the molecule, how does the Potency read?
**A.** inactive

**Q.** For `CCCn1c(N)c(Sc2ccc(Cl)cc2)c(=O)n(CCC)c1=O`, which Potency is on record?
**A.** inconclusive: 32.6 µM [inhibitor, single point]

**Q.** With `CCCN(CC(=O)Nc1ccc(Cl)cc1Cl)C(=O)/C=C/c1cccc([N+](=O)[O-])c1` as the molecule, how does the Potency read?
**A.** active: 29.1 µM

**Q.** With `Cc1[nH]c2ccccc2c1N=Nc1ccccc1F` as the molecule, how does the Potency read?
**A.** inconclusive: 10.3 µM [inhibitor, partial curve]

**Q.** For `COc1cccc2c1cc1c(=O)n(CC(=O)O)nc(C)n12`, which Potency is on record?
**A.** inactive

**Q.** Which Potency does the source give for `O=[N+]([O-])c1cccc2[nH]ncc12` here?
**A.** inconclusive: 32.6 µM [inhibitor, single point]

**Q.** For `O=C(NCc1cccc(Cl)c1)C1CCN(c2nnc(N3CCCC3=O)s2)CC1`, which Potency is on record?
**A.** inactive

**Q.** With `CCOc1ccc(-c2c(C)nn3c(C)c(C(=O)NCCc4ccccc4)cnc23)cc1OCC` as the molecule, how does the Potency read?
**A.** active: 5.17 µM

**Q.** Which Potency does the source give for `COc1ccc(-c2nc(CN3CCC(C(=O)N4CCOCC4)CC3)c(C)o2)c(OC)c1` here?
**A.** inactive

**Q.** With `COc1ccc(-c2cc(C(F)(F)F)nc(NCc3ccc(Cl)cc3)n2)cc1` as the molecule, how does the Potency read?
**A.** inconclusive: 29.1 µM [inhibitor, single point]

**Q.** With `COc1ccccc1CNC(=O)CSc1cc(=O)n(C)c2ccccc12` as the molecule, how does the Potency read?
**A.** inactive and inconclusive: 18.4 µM [inhibitor, single point]

**Q.** For `Cn1nc(C(=O)N2CCN(c3ccc(Cl)cc3)CC2)c2c1-c1ccccc1S(=O)(=O)C2`, which Potency is on record?
**A.** inconclusive: 20.6 µM [inhibitor, single point] and inconclusive: 23.1 µM [inhibitor, single point]

**Q.** With `CCN1CCN(c2ccc(NC(=O)Cc3ccccc3)cc2)CC1` as the molecule, how does the Potency read?
**A.** inactive
